The values below come from PMC3656048.

Amino acid sequences for entries named in this document (tags omitted). Residues count along the entry.
UniProt P34971: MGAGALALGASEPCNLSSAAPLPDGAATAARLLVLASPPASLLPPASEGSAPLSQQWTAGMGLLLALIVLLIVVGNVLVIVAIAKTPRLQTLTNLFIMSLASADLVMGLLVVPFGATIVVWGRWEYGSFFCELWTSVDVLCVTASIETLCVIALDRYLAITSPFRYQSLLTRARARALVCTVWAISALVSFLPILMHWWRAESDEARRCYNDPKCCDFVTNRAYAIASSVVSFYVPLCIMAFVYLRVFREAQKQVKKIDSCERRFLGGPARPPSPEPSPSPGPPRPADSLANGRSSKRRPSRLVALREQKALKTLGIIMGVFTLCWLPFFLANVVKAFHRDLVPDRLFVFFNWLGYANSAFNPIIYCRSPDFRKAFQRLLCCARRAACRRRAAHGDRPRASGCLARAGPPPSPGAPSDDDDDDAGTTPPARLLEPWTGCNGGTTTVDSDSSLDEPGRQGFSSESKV
UniProt P08588: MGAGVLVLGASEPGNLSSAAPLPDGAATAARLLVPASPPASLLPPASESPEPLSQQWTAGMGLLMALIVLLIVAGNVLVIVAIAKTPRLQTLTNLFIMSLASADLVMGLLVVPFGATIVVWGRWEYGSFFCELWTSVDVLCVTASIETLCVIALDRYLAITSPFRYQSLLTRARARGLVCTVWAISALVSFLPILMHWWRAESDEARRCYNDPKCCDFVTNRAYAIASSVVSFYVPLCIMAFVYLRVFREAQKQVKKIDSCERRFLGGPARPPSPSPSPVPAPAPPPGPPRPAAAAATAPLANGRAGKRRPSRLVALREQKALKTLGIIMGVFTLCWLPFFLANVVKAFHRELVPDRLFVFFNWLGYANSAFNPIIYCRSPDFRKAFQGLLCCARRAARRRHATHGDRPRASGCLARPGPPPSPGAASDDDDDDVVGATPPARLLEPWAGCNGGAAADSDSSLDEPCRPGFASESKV
UniProt P19490, residues 19-907: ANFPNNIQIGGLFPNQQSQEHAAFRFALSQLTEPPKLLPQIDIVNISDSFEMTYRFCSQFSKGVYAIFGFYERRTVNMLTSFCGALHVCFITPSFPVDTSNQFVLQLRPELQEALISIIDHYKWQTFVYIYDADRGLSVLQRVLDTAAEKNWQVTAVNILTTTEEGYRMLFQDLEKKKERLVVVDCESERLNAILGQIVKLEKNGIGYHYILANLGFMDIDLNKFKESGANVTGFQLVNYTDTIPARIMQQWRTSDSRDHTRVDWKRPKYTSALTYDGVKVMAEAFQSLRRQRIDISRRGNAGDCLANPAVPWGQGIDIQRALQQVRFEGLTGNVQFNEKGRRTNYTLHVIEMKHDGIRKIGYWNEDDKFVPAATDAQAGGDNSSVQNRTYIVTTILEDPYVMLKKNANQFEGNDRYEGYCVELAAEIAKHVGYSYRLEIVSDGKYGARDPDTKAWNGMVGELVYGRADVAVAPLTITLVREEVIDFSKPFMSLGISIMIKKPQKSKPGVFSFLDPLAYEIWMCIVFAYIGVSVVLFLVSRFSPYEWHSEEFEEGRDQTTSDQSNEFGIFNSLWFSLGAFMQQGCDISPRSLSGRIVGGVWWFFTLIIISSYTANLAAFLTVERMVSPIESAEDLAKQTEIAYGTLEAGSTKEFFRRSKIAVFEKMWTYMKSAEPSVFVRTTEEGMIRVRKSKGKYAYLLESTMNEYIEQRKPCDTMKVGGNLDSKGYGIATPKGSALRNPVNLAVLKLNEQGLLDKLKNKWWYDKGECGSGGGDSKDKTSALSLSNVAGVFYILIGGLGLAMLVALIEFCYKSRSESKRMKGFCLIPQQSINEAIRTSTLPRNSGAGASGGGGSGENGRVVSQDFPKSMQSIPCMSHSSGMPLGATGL
UniProt Q811D0: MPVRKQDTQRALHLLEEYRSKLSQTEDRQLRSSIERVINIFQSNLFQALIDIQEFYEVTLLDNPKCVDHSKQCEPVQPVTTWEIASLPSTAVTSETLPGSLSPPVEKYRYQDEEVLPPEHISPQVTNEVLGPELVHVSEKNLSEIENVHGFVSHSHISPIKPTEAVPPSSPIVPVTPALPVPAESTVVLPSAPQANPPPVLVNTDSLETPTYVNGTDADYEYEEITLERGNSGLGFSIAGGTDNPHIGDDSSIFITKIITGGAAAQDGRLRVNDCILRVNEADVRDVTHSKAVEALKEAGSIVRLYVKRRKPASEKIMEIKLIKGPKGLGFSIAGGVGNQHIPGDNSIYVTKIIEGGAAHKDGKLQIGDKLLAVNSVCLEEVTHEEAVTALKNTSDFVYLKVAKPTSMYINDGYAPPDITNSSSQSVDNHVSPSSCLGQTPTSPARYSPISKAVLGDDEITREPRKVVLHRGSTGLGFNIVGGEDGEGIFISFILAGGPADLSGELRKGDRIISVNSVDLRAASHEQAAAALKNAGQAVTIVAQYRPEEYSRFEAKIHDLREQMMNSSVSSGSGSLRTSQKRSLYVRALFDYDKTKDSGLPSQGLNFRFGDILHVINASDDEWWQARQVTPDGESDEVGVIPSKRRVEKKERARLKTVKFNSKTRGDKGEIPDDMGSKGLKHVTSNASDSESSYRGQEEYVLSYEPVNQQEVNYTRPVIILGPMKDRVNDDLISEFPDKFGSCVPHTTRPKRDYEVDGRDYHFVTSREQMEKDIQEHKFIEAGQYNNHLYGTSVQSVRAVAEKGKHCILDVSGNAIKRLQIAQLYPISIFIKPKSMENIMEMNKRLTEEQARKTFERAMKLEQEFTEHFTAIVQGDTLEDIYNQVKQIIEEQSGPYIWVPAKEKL
UniProt P18090: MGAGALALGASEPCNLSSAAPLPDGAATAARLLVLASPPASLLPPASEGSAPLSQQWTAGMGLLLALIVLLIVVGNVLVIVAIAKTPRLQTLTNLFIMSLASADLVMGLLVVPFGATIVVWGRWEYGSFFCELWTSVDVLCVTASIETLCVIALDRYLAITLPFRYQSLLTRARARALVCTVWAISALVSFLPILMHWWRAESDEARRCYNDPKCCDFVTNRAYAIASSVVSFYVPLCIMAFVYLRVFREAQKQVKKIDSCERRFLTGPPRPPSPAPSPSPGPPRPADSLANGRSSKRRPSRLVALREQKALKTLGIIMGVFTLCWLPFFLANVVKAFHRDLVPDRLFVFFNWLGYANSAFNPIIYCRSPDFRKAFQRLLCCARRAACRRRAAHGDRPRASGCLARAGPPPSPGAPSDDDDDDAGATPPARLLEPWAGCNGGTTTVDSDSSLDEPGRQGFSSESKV

These are yes or no findings as the source states them, for the method shown. Binding seen in cells or lysates may run through a third protein. Some entries that bind do so weakly or less than the wild type.

Assay [1] deals with SAP97 (rat hippocampal membranes) (rat (endogenous in hippocampus)) (UniProt Q62696). In words: co-IP; RIPA lysates of crude rat hippocampal membranes incubated with anti-SAP97 IgG (1:200) or mouse IgG 16 h at 4°C, protein G-agarose; blots for GluR1 and ß1-AR.
In assay [2] the target is HA-tagged mouse ß1-AR (mouse) (UniProt P34971). As to the kind of experiment: co-IP; mouse neonatal cardiac myocytes infected with adenovirus for HA-tagged ß1-AR; RIPA lysate on anti-HA affinity beads 24 h at 4°C; blots for SAP97, ß1-AR and AKAP150.
The target in assay [3] is full length WT FLAG ß1-AR (human) (UniProt P08588). In words: co-IP; in vitro interference: extract of cells co-expressing FLAG ß1-AR and SAP97-YFP mixed with 2.5 µg purified GST or 3.2 µg GST-PDZ in 1 ml (0.1 µM); FLAG IP probed with anti-SAP97.
Assay [4] has the same target. As to the kind of experiment: co-IP; HEK-293 cells stably expressing FLAG ß1-AR and hSAP97 shRNA, transfected with rat SAP97 constructs; RIPA lysates on anti-FLAG M2 resin; blot with anti-SAP97 or anti-pan PDZ antibody.
The target is the same in assay [5]. In words: co-IP; in vivo interference: HEK-293 cells stably expressing FLAG ß1-AR and SAP97-YFP transfected with empty pIRES or an individual SAP97 PDZ in pIRES-EGFP; FLAG IP probed with anti-SAP97 (n = 3).

“GluR1 subunit of AMPA receptors (from UniProt P19490 19-907)”: in assay [1], the binding entry is listed as “binds”.

On to “SAP97 (mouse cardiac myocytes) (from UniProt Q811D0 1-905)”, for which, in assay [2], the binding result is “binds”.

With “WT rSAP97-YFP (from UniProt Q62696 1-911)”, the binding result in assay [3], in assay [4] and in assay [5] was “binds” throughout.

“K323A/K326A rSAP97-YFP (from UniProt Q62696 1-911)”: the binding result in assay [4] is “no binding”.

As to “ß1-AR (rat hippocampal membranes) (from UniProt P18090 1-466) (receptor)”, the binding entry in assay [1] was “binds”.

In the case of “full-length rSAP97 in pIRES-EGFP (from UniProt Q62696 1-911)”, in assay [4], the binding result is recorded as “binds”.
